# Results published in ChEMBL document CHEMBL4888484, “Replenishing the malaria drug discovery pipeline: Screening and hit evaluation of the MMV Hit Generation Library 1 (HGL1) against asexual blood stage Plasmodium falciparum ,using a nano luciferase reporter read-out” (2022).
# Out of some 150,000 compounds screened, about 540 (0.36%) showed an effect of 50% or more. The list shows a part of the results.
# Tested on: Plasmodium falciparum
# Experiment: Primary screen in NF54 nanoGlo assay, in single point, at 2uM, 72h; a lower Z score goes with more inhibition
# Type: functional, Erythrocyte
# Conditions: timepoint 72 hour
Compound,% Inhibition,Z score
O=S(=O)(N[C@H]1CO[C@H]2[C@@H]1OC[C@@H]2n1cc(-c2ccccn2)nn1)c1cccs1,-11%,1.53
c1cncc(Cn2c3c(c4ccccc42)CNCCC3)c1,3%,-0.43
COc1ccc(OC)c2c1cc(C(=O)Nc1nccs1)n2C,-9%,1.1
CC(C)CN(Cc1ccccn1)Cc1c[nH]cn1,-22%,2.03
CCOc1ccc(-c2ccc3c(c2)C(=O)NCC3)cc1OCC,-8%,1.47
O=C(O)C12CCC(C(=O)Nc3ccccc3)(CC1)C2,-12%,1.17
O=C(Nc1cc(F)ccc1OC(F)F)NC1CCOC(C2CC2)C1 (stereo unspecified),9%,-0.91
COc1ccc(C(=O)Nc2nc3n(n2)[C@H](c2ccccc2)CC(=O)N3)cc1,-12%,1.05
CC[C@H]1c2cccn2CCN1C(=O)c1nc2n(n1)CCCN2,0%,0.02
COC(=O)c1ccc(N2C[C@@H]3OC(=O)N(Cc4ccccc4OC)[C@@H]3C2)nc1,11%,-1.62
CCN1CCN(C2CCN(c3nc4nonc4nc3N3CCCCCC3)CC2)CC1,-3%,0.34
O=C(c1ccc(CN2C(=O)CCn3nccc32)cc1)N1CCN(c2cccc(C(F)(F)F)c2)CC1,3%,-0.35
Cc1nc(NC(=O)[C@H]2CC(=O)N(C(C)C)C2)sc1-c1ccccn1,-10%,0.91
CCc1ncnc(N[C@H]2CC=CC[C@@H]2C(N)=O)c1F,-13%,1.62
Cc1cnc(CN(Cc2c(C)nn(C)c2C)CC(C)C)cn1,-10%,1.4
OC[C@@H]1[C@@H](Cc2ccnc(-c3cccnc3)n2)[C@H](NCc2ccc(C(F)(F)F)cc2)C[C@H]1O,-8%,1.18
CCN(CC)C(=O)[C@@H](NC(=O)c1ccccc1)C1CCN(S(=O)(=O)c2ccc(Cl)cc2)CC1,-7%,0.7
CCn1nc(N)c(Br)c1C,34%,-3.86
CC1CCN(c2nc3c(c(Oc4ccc(F)c(F)c4)n2)CN(C(=O)NCc2ccccc2)CC3)CC1,-26%,2.56
Cc1cc(C(=O)N2CCc3[nH]cnc3C2)c2c(C)noc2n1,-3%,0.5
O=S(=O)(c1cccc(-c2nnc(-c3ccccc3Br)o2)c1)N1CCOCC1,-9%,1.58
CN(C)c1nccc(CNC(=O)c2ccccc2)n1,-4%,0.73
CCN(CC(=O)Nc1c(F)cccc1F)c1cnc2ccccc2n1,-9%,1.25
